Measured values from PubChem BioAssay AID1030 (National Center for Advancing Translational Sciences (NCATS), 2008).
Screen size: about 220,000 compounds; about 16,000 (7.3%) were called active. The inconclusive results got no clear call from the source; some entries with a clear call stand among them for comparison. Calls follow the shape of the dose curve; as a rule, active = well fitted inhibition curve with a large enough effect (not every such curve was filed as active); inconclusive = small, poorly fitted or top-dose-only effect, or another doubt; inactive = no such curve, though single readings can be large or run the other way. Potencies of inconclusive entries are left out as doubtful fits.
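For activity, negative = inhibition in this document: plate controls were no enzyme wells and a reference inhibitor.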
Potency is read from the fitted curve at half-maximal effect; tags tell the direction and shape of the fitted curve.

What follows are compounds tested against Aldehyde dehydrogenase 1A1 (Homo sapiens) (UniProt P00352) (assay: qHTS Assay for Inhibitors of Aldehyde Dehydrogenase 1 (ALDH1A1)). Details: Purified ALDH1A1, NADH fluorescence, propionaldehyde substrate; series mostly up to 75.3 µM; activity, negative = inhibition: at the top concentration.
UniProt P00352, sequence (P00352 whole entry, looked up): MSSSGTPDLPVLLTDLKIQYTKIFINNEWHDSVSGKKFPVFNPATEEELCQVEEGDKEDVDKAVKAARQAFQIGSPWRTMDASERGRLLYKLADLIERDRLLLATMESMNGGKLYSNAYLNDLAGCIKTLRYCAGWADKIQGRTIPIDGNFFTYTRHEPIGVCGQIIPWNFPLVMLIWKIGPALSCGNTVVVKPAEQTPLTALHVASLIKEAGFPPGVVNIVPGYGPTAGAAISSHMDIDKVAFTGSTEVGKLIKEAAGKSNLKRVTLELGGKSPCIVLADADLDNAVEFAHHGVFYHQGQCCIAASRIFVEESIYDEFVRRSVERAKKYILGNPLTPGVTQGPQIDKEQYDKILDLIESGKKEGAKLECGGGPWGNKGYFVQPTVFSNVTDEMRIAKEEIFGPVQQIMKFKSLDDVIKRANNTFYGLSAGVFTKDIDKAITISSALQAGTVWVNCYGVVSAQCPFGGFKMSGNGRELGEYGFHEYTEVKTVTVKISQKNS
In the case of `O=C(c1cccc(S(=O)(=O)N2CCc3ccccc32)c1)N1CCN(c2ccccn2)CC1`, the Potency is reported as active: 12.6 µM.
For `COc1cc(-c2nc(S(=O)(=O)c3ccc(C)cc3)c(N3CCOCC3)o2)cc(OC)c1OC`, the Potency was active: 1.12 µM.
For `Cc1cc(C(=O)Nc2sc3c(c2C#N)CCC(C)C3)cs1` (centres undefined), the Potency was inconclusive [inhibitor, single point].
With `O=C1NCCN(Cc2ccc(Cl)c(F)c2)C1CC(=O)N1CCc2ccccc2C1` (centres undefined) the Potency was inconclusive [inhibitor, single point].
With `CC1CCCCN1C(=O)N[C@@H](Cc1ccccc1)C(=O)O` (some centres undefined) the Potency was inconclusive [inhibitor, single point].
For `O=C1c2cccc3cccc(c23)C(=O)N1CC1CCN(CC(O)COCc2ccc3c(c2)OCO3)CC1` (centres undefined), the Potency was inconclusive [inhibitor, single point].
`COc1cc(C2NC(C(=O)O)Cc3c2[nH]c2ccccc32)cc(OC)c1OC` (centres undefined) was tested, and the Potency was inconclusive [inhibitor, single point].
`O=C(Nc1nnc(-c2ccc(Cl)cc2)o1)c1cccc(N2C(=O)CCC2=O)c1` was tested, and the “activity, negative = inhibition” value was inactive: 4.22%.
For `O=C(COC(=O)C1CCN(S(=O)(=O)c2ccccc2C(F)(F)F)CC1)NCc1ccc(F)cc1`, the “activity, negative = inhibition” value was inactive: 0.663%.
`CCN1CCN(C(=O)CN(c2cccc(Br)c2)S(=O)(=O)c2ccccc2)CC1` was tested, and the Potency was inconclusive [inhibitor, single point].
For `CCCNC(=O)NC(=O)CSc1ncc(C(F)(F)F)cc1Cl`, the “activity, negative = inhibition” value was inactive: 10.3%.
With `COc1ccc(/C=N/n2c(=O)[nH]c3c([nH]c4ccc(C)cc43)c2=O)cc1CN1CCOCC1` the Potency was inconclusive [inhibitor, partial curve, poor fit].
With `Nc1c2c(nc3ccc(Br)cc13)N(Cc1ccccc1)CC2` the Potency was inconclusive [inhibitor, single point].
`CCOC(=O)C1(CC2CCCCO2)CCN(Cc2nc(C(C)C)cs2)CC1` (centres undefined) was tested, and the “activity, negative = inhibition” value was inactive: 0.595%.
In the case of `COc1ccc(C(c2sc3ncnn3c2O)N2CCN(c3ccccc3F)CC2)cc1OC` (centres undefined), the Potency is reported as inconclusive [inhibitor, single point].
`CCNc1ncc2nc(-c3ccc(Cl)cc3)c(=O)n(C3CC3)c2n1` was tested, and the Potency was inconclusive [inhibitor, partial curve, poor fit].
In the case of `COc1cc(NC(=O)C2=C(N3CCOCC3)/C(=C\c3ccc(N(C)C)cc3)CCC2)cc(OC)c1OC`, the Potency is reported as active: 17.8 µM.
In the case of `Cc1ccc(C(=O)NCCSC2CCCCC2)cc1S(=O)(=O)Nc1ccccc1`, the Potency is reported as inconclusive [inhibitor, partial curve].
For `CC1=C/C(=N\S(=O)(=O)c2ccccc2)C(C(C)C)=CC1=O`, the “activity, negative = inhibition” value was inactive: -11.8%.
With `COc1cccc(OC)c1C(=O)Oc1ccc2c(c1)O/C(=C\c1ccncc1)C2=O` the Potency was inconclusive [inhibitor, partial curve].
For `Cc1c(Br)c(-c2n[nH]c(=S)n2Cc2ccco2)nn1C`, the Potency was inconclusive [inhibitor, single point].
In the case of `COc1ccc(CCN2CN(S(=O)(=O)c3ccccc3)c3nc4ccccc4nc32)cc1OC`, the “activity, negative = inhibition” value is reported as inactive: -1.45%.
For `COc1ccc(NC(=O)c2c[nH]c(=O)n(-c3ccc(C)c(C)c3)c2=O)cc1OC`, the Potency was inconclusive [inhibitor, single point].
`COC(=O)c1cccc(NC(=O)CN2CCN(Cc3ccccc3)CC2)c1` was tested, and the Potency was active: 25.1 µM.
For `OCCNC(=S)Nc1ccc(Cl)c(Cl)c1`, the “activity, negative = inhibition” value was inactive: 12.8%.
For `Cc1ccc(Cl)cc1NC(=O)c1cc2ccccc2cc1O`, the “activity, negative = inhibition” value was inactive: 6.51%.
For `Cc1c(NC(=O)c2cccs2)cccc1-c1nc2ccccc2s1`, the Potency was inconclusive [inhibitor, single point].
With `CCCCN1CC(COc2ccccc2)OC1=O` (centres undefined) the “activity, negative = inhibition” value was inactive: -3.53%.
With `C=CCNc1oc(Cc2cccc3ccccc23)nc1C#N` the Potency was inconclusive [inhibitor, partial curve, poor fit].
With `Cc1cc(C)n(-c2ccc(-n3ccnc3)nn2)n1` the “activity, negative = inhibition” value was inactive: -7.35%.
`S=C(NCc1ccco1)N1CCN(c2ccc(Cl)cc2)CC1` was tested, and the “activity, negative = inhibition” value was inactive: -0.945%.
With `COc1cc2nc(-c3ccc(Br)o3)oc(=O)c2cc1OC` the Potency was inconclusive [inhibitor, single point].
With `CCCCn1c(/N=C/c2ccc(N(C)C)cc2)nc2ccccc21` the Potency was active: 2.82 µM.
`CC1C(C#N)=C(N)OC2=C1C(=O)CC(C)(C)C2` (centres undefined) was tested, and the “activity, negative = inhibition” value was inactive: -6.52%.
With `O=C1c2ccccc2C(O)N1c1cccnc1` (centres undefined) the “activity, negative = inhibition” value was inactive: 7.6%.
In the case of `COc1ccc(N2C(=O)C(Cl)=C(Nc3ccccc3O)C2=O)cc1`, the Potency is reported as active: 15.8 µM.
In the case of `c1cn(-c2ncnc3ccc(-c4ccoc4)cc23)cn1`, the Potency is reported as inconclusive [inhibitor, single point].
`CCc1c(C)sc(NC(=O)c2ccc(Br)o2)c1C(=O)OC` was tested, and the Potency was inconclusive [inhibitor, partial curve].
In the case of `COc1ccc(-c2noc(CCC(=O)NCCN(C)Cc3ccccc3)n2)cc1`, the “activity, negative = inhibition” value is reported as inactive: 6.73%.
`CCn1nc(C)c(NS(=O)(=O)c2ccc(C)cc2)c1C` was tested, and the “activity, negative = inhibition” value was inactive: -1.07%.
For `COCC(=O)N1CCC2(CC1)CN(C(=O)Nc1ccc(OC)cc1)C2`, the “activity, negative = inhibition” value was inactive: 0.304%.
For `CCOc1ccc(C(=O)NCC(=O)OCc2csc(-c3ccccc3)n2)cc1`, the Potency was inconclusive [inhibitor, single point].
With `N#C[C@H]1CN[C@H](N)N[C@@H]1N` the activity, negative = inhibition was inactive: 4.56% [at 13.5 µM].
In the case of `COc1ccc(NC(=O)CSc2ccccc2)c([N+](=O)[O-])c1`, the Potency is reported as inconclusive [inhibitor, full curve].
`O=C(CSc1nnc(-c2ccccc2)c(-c2ccccc2)n1)N1CCOCC1` was tested, and the “activity, negative = inhibition” value was inactive: 6.11%.
In the case of `CC(NC(=O)CSc1nc2c(c(C(F)(F)F)n1)CCc1ccccc1-2)c1ccccc1` (centres undefined), the “activity, negative = inhibition” value is reported as inactive: -5.57%.
`COc1ccc(/C=N/NC(=O)Nc2cccc3nsnc23)cc1` was tested, and the “activity, negative = inhibition” value was inactive: -4.8%.
For `CC(=O)CCc1c(C)[nH]c2ccc(NC(C)=O)cc2c1=O`, the Potency was inconclusive [inhibitor, partial curve].
In the case of `COc1ccc(NC2=CC(c3ccc(F)cc3)N(c3ccc(OC)cc3)C2=O)cc1` (centres undefined), the Potency is reported as inconclusive [inhibitor, single point].
